Results: patent US11685723B2, “Antibacterial agents: O-alkyl-deuterated pyronins” (Rutgers, the State University of New Jersey, priority 2018, dated 2023)
Read-outs that look alike come from different tables or passages of the source.

How the values were obtained:
[1] = tested on: methicillin-resistant Staphylococcus aureus (MRSA) strain BAA-1707; experiment: Mouse model of Staphylococcus aureus systemic infection (peritonitis model); type: in vivo
Method: Survival was monitored for 72 h post-infection. […] The effective dose 50 (ED50) was defined as the test-compound dose resulting in 50% survival at 72 h (calculated using the probit method).

[2] = tested on: methicillin-resistant Staphylococcus aureus (MRSA) strain BAA-1707; experiment: Mouse model of Staphylococcus aureus lung infection (neutropenic pneumonia model); settings: neutropenic mice, lung burden at 24 h
[3] = mice, intravenous single dose 0 h post-infection, 50% survival at 72 h, read-out: in vivo antibacterial activity mouse MRSA peritonitis ED50

Row | Compound | ED50 [1, 3] [mg/kg] | also measured
1 | COC(=O)N/C=C/CCC(C)c1cc(O)c(C(=O)/C(C)=C/c2sc(Oc3ccc(F)cc3)nc2C)c(=O)o1 (centres unmarked) [Example 1] | 20 | 
2 | COC(=O)N/C=C/CCC(C)c1cc(O)c(C(=O)/C(C)=C/c2cnc(Oc3ccc(F)cc3)s2)c(=O)o1 (centres unmarked) [Example 2] | 25 | 
3 | COC(=O)N/C=C/CCCc1cc(O)c(C(=O)/C(C)=C/c2sc(Oc3ccc(F)cc3)nc2C)c(=O)o1 [Example 3] | 11 | 
4 | [2H]C([2H])([2H])OC(=O)N/C=C/CCC(C)c1cc(O)c(C(=O)/C(C)=C/c2cnc(Oc3ccc(F)cc3)s2)c(=O)o1 (centres unmarked) [Example 5] | 15 | 
5 | COC(=O)N/C=C/CCCc1cc(O)c(C(=O)/C(C)=C/c2cnc(Oc3ccc(F)cc3)s2)c(=O)o1 [Example 6] | 15 | 
6 | [2H]C([2H])([2H])OC(=O)N/C=C/CCCc1cc(O)c(C(=O)/C(C)=C/c2sc(Oc3ccc(F)cc3)nc2C)c(=O)o1 [Example 7] | 10 | 
7 | [2H]C([2H])([2H])OC(=O)N/C=C/CCCc1cc(O)c(C(=O)/C(C)=C/c2cnc(Oc3ccc(F)cc3)s2)c(=O)o1 [Example 8] | 13 | 
8 | [2H]C([2H])([2H])OC(=O)N/C=C/CCCc1cc([O-])c(C(=O)/C(C)=C/c2cnc(Oc3ccc(F)cc3)s2)c(=O)o1.[Na+] [Example 9] |  | in vivo antibacterial activity: mouse MRSA pneumonia ED(2 log) ([2]; intravenous single dose 1 h post-infection): 25 mg/kg; in vivo antibacterial activity: mouse MRSA pneumonia ED(2 log) ([2]; oral single dose 1 h post-infection): 100 mg/kg; ED50 ([1]; iv, read-out: in vivo antibacterial activity mouse MRSA peritonitis ED50): 10 mg/kg; ED50 ([1]; po, read-out: in vivo antibacterial activity: mouse MRSA peritonitis ED50): 10 mg/kg
